Measurements reported in PubChem BioAssay AID651820 (National Center for Advancing Translational Sciences (NCATS), 2012).
Among all 340,000 compounds or so, about 12,000 (3.5%) were called active. Inconclusive means that the source gave no clear call. Such entries were picked first, then a sample of the others. Calls follow the shape of the dose curve; as a rule, active = well fitted inhibition curve with a large enough effect; inconclusive = small, poorly fitted or top-dose-only effect, or another doubt; inactive = no such curve, though single readings can be large or run the other way. Potencies of inconclusive entries are left out as doubtful fits.

Experiment: qHTS Assay for Inhibitors of Hepatitis C Virus (HCV)
Details: Huh7.5.1 HCVcc-Cre (HCVcc is cell-culture hepatitis C virus) infection, luciferase reporter, 44 h; series mostly up to 41.8 µM
Method in brief: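 HCVcc-Cre virus at an moi near 0.5 was added right after compound to cells cultured 4 h from seeding (1,000 cells/well). Luciferase activity was determined 44 h later, 15 min after substrate addition at RT.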
Potency is read from the fitted curve at half-maximal effect; tags tell the direction and shape of the fitted curve.

Row | Structure (SMILES) | Potency
1 | COc1ccc(C(=O)OCc2c(F)cccc2Cl)cc1S(=O)(=O)N1CCOCC1 | inconclusive [inhibitor, full curve]
2 | CN(CCOC(=O)c1ccc2c(c1)OCCO2)C(C)(C)C | inactive
3 | N#C/C(=C/c1ccc(F)cc1)S(=O)(=O)c1ccccc1 | inactive
4 | COc1ccccc1OCCNc1cc(N2CCOCC2)ccc1[N+](=O)[O-] | active: 14.1 µM
5 | CCOC(=O)CSC1=C(C#N)C(c2sccc2C)CC(=O)N1 (stereo unspecified) | inconclusive [inhibitor, partial curve]
6 | CCN(c1ccccc1)S(=O)(=O)c1cccc(C(=O)NCC(c2ccco2)N2CCCC2)c1 (stereo unspecified) | active: 10 µM
7 | CCCCNC(=S)Nc1cccc2cnccc12 | active: 10 µM
8 | Cc1cc(Cl)ccc1Oc1nccc(N(C)C)c1C#N | inconclusive [inhibitor, partial curve]
9 | CCOc1ccc(-c2nc(N)ncc2Oc2ccccc2Br)c(O)c1 | inconclusive [inhibitor, single point]
10 | O=C1C=C(c2ccc(Cl)cc2)OC2(CCCC2)O1 | inconclusive [inhibitor, partial curve]
11 | CCCn1nnc(NC(=O)c2ccc(-c3cc(Cl)ccc3Cl)o2)n1 | inconclusive [inhibitor, single point]
12 | Cc1ccc(S(=O)(=O)N2CCN(C(=O)CSc3nc4ccccc4o3)C2)cc1 | inconclusive [inhibitor, single point]
13 | CC(=O)Nc1ccc2c(c1)C(=O)c1ccc(Cl)cc1-2 | inconclusive [inhibitor, single point]
14 | O=C(Nc1ccccc1)c1ccccc1NC(=O)C(F)(F)F | inconclusive [inhibitor, single point]
15 | O=C(NCc1cccc(Cl)c1)c1cnn2c1NC(c1ccco1)CC2C(F)(F)F (stereo unspecified) | inconclusive [inhibitor, single point]
16 | CC(=O)NC(CC(=O)OCC(=O)N1CCc2ccccc21)c1ccccc1 (stereo unspecified) | inactive
17 | Cc1cc(C)c(NC(=O)CSc2nc(COc3ccccc3)nc3ccccc23)c(C)c1 | inactive
18 | CCn1c(=O)n(CC)c2cc(S(=O)(=O)N3CCC(c4ccccc4)CC3)ccc21 | inconclusive [inhibitor, single point]
19 | COc1ccc(C2=NN(C(=O)c3cccs3)C(c3ccccc3O)C2)cc1 (stereo unspecified) | inconclusive [inhibitor, single point]
20 | CC(C)OCCCNC(=O)c1c(N)n(Cc2cccs2)c2nc3ccccc3nc12 | active: 10 µM
21 | COc1ccc(OC)c(CCNC(=O)c2ccc(NC3=NC4CS(=O)(=O)CC4S3)cc2)c1 (stereo unspecified) | inconclusive [inhibitor, single point]
22 | Cc1cc2ccccn2c1C(=O)c1ccc(S(=O)(=O)N(C)C)cc1 | inconclusive [inhibitor, single point]
23 | N#CC1=C2SCC(O)(c3ccccc3)N2C(=O)CC1c1ccccc1 (stereo unspecified) | inconclusive [inhibitor, full curve]
24 | CSc1ccccc1OCc1cc(C(=O)N2CCN(c3ccccc3)CC2C)no1 (stereo unspecified) | inconclusive [inhibitor, single point]

Row | Structure (SMILES) | Potency
25 | COC(C)(C)[C@@H](O)COc1c2ccoc2cc2oc(=O)ccc12 | inconclusive [inhibitor, single point]
26 | CCOc1ccc2[nH]c(=O)c(C(c3nnnn3C3CCCCC3)N3CCN(C)CC3)cc2c1 (stereo unspecified) | inactive
27 | Cc1cccc(NC(=O)c2sc3nc(-c4ccc(F)cc4)cn3c2C)n1 | inconclusive [inhibitor, full curve]
28 | Cc1nc(-c2ccc(Cl)cc2)sc1C1(C)CC(c2cccc(Cl)c2)=NO1 (stereo unspecified) | inactive
29 | O=C(CCl)N1CCCC1c1ccc2c(c1)OCCO2 (stereo unspecified) | inconclusive [inhibitor, single point]
30 | N#CC(C#N)=C(Nc1ccc(F)cc1)SCc1cccc(F)c1 | active: 10 µM
31 | Cc1ccc2c(CN3CCCCC3CCO)cc(=O)oc2c1 (stereo unspecified) | inactive
32 | COc1cc(/C=C2\CCC/C(=C\c3ccc(O)c(OC)c3)C2=O)ccc1O | active: 12.6 µM
33 | CCn1nc(C)c(CN2CCC(C(=O)Nc3cccc(-c4cccc(Cl)c4)c3)CC2)c1C | inconclusive [inhibitor, partial curve]
34 | Cn1nc(C(C)(C)C)cc1C(=O)NNC(=O)c1ccc(C(F)(F)F)cc1 | inconclusive [inhibitor, partial curve]
35 | COc1ccccc1NC(=O)CN1CCN(c2ccccc2)CC1 | inconclusive [inhibitor, single point]
36 | O=C(CSCC(=O)N1CCCCC1)Nc1nc(-c2ccccc2)c(-c2ccccc2)s1 | inconclusive [inhibitor, single point]
37 | COc1cccc(OC)c1C(=O)N1CCN(Cc2ccncc2)CC1 | inactive
38 | Cc1ccc(N(Cc2cc3ccccc3[nH]c2=O)C(=O)c2ccco2)c(C)c1 | inconclusive [inhibitor, single point]
39 | O=C(Nc1ccncc1)c1ccc2ncsc2c1 | inconclusive [inhibitor, single point]
40 | COc1ccccc1N1CCN(S(=O)(=O)c2ccc(Cl)cc2)CC1 | inconclusive [inhibitor, single point]
41 | COCCNC(=S)N(c1ccccc1)C(C)C | inconclusive [inhibitor, single point]
42 | COc1ccccc1N(C(=O)c1snc(C(N)=O)c1N)C(C(=O)NC1CCCCC1)c1cccc(OC)c1OC (stereo unspecified) | inconclusive [inhibitor, single point]
43 | O=C(Nc1ccc2c(c1)OCO2)c1ccc(Cl)s1 | inconclusive [inhibitor, partial curve]
44 | CN(CC(=O)Nc1ccccc1Br)C(=O)c1cc(S(=O)(=O)N(C)C)ccc1N1CCCC1 | inactive
45 | CC1(C)COC(/C=C/c2ccc([N+](=O)[O-])cc2)=N1 | inconclusive [inhibitor, single point]
46 | COc1c(C)cc(C(=O)C2CCCN(Cc3cnc(N4CCOCC4)s3)C2)cc1C (stereo unspecified) | active: 11.2 µM
47 | CC(C)c1ccc(CCNC(=O)c2cccc(S(=O)(=O)N3CCN(C)CC3)c2)cc1 | inconclusive [inhibitor, full curve]
48 | Cc1nc(Br)c(Br)c(C)c1Br | inactive

Row | Structure (SMILES) | Potency
49 | CCOC(=O)Cn1c(CN(Cc2ccccc2)Cc2ccccc2)nc2c1c(=O)n(C)c(=O)n2C | inconclusive [inhibitor, single point]
50 | N#Cc1sc2nc(-c3cccs3)cc(-c3ccc(Cl)cc3)c2c1N | inconclusive [inhibitor, single point]
51 | CCc1cccc(OCC(=O)Nc2cc(S(=O)(=O)N3CCOCC3)ccc2N2CCCC2)c1 | inconclusive [inhibitor, single point]
52 | CN(C)N=Nc1nc2c(c(=O)n(C)c(=O)n2C)n1CC1CO1 (stereo unspecified) | active: 3.98 µM
53 | O=C(CCc1ccc(S(=O)(=O)N2CCOCC2)cc1)N1CCN(Cc2ccc3c(c2)OCO3)CC1 | inconclusive [inhibitor, single point]
54 | COc1cc([N+](=O)[O-])ccc1NC(=O)Nc1cccnc1 | inactive
55 | O=c1c(Cl)c(Cl)cnn1Cc1ccccc1Cl | active: 2.82 µM
56 | Cc1c(-c2nnc(SCC(=O)O)n2-c2ccccc2Br)nnn1-c1ccccc1 | inactive
57 | Cc1ccc(NC(=O)CCCCCN2C(=O)[C@@H]3Cc4ccccc4CN3C2=O)c(Cl)c1 | active: 12.6 µM
58 | COCC(C)n1c(C)cc(C(=O)COC(=O)c2c(C)nn(-c3ccccc3)c2C)c1C (stereo unspecified) | inconclusive [inhibitor, partial curve, poor fit]
59 | O=C(O)c1ccc(N/N=C/c2ccc(-c3ccc(Br)cc3)o2)cc1 | inactive
60 | O=C(CNC(=O)c1ccc2c(c1)S(=O)(=O)N=C1CCCCCN12)Nc1ccc(F)c(F)c1 | inactive
61 | O=C(NCCCN1CCOCC1)c1cc2c(s1)-c1ccccc1OC2 | inconclusive [inhibitor, single point]
62 | Cc1nn(Cc2noc(C(=O)NC3CCC(C)CC3)n2)c(C)c1Br (stereo unspecified) | inactive
63 | COCCn1nnnc1C(c1cccs1)N1CCN(c2nc3ccccc3s2)CC1 (stereo unspecified) | inconclusive [inhibitor, partial curve]
64 | COc1cc(S(=O)(=O)N2CCOCC2)ccc1NC(=O)CN1c2cccc3cccc(c23)S1(=O)=O | inconclusive [inhibitor, single point]
65 | Cc1cccc(N2CCN(C(=O)CCC(=O)N3Cc4ccccc4Oc4ncccc43)CC2)c1C | inconclusive [inhibitor, partial curve]
66 | COc1ccccc1-c1nc(C#N)c(NCc2ccc(F)cc2)o1 | inconclusive [inhibitor, single point]
67 | COc1cc(NC(=S)Nc2cccc(Cl)c2Cl)c(OC)cc1Cl | inactive
68 | COc1ccc(C(=O)N2CCc3c([nH]c4ccccc34)C2C(F)(F)F)cc1 (stereo unspecified) | inconclusive [inhibitor, single point]
69 | CCOc1cc(CNC(=O)CCCn2c(=O)c3cccn3c3cccnc32)cc(OCC)c1OCC | inconclusive [inhibitor, partial curve]
70 | CN1CCN(C(=O)/C(=C/c2cn(S(=O)(=O)N(C)C)c3ccccc23)NC(=O)c2ccccc2F)CC1 | inactive
71 | COc1ccc(NC(=O)Nc2ccccc2)cc1S(=O)(=O)N1CCCCC1 | inconclusive [inhibitor, partial curve]
